# Assay results published in PubChem BioAssay AID624171 (National Center for Advancing Translational Sciences (NCATS), 2012).
# Out of some 410,000 compounds screened, about 1,200 (0.29%) were called active. This list was built around the results that the source calls inconclusive (neither active nor inactive); the mix of calls is not that of the screen. The call rests on the fitted dose curve; in most records, active means well fitted activation curve with a large enough effect; inconclusive means small, poorly fitted or top-dose-only effect; inactive means flat fitted curve, though single readings scatter. Where the call is inconclusive, the potency comes from a doubtful curve fit.
# Assay: qHTS of Nrf2 Activators; further: nearly all actives have a fitted effect of over 65% in size; on activation: % of control where 0% means no effect
# Details: AREc32 ARE-luciferase reporter (MCF7-derived line), luminescence, 24 h; activation: at 46.1 µM (top of the series)
# Procedure, shortened: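 Steps: seed AREc32_Fluc cells (1000/well, 5% FBS OPTI-MEM); incubate overnight at 37 deg C; add 23 nL compound; incubate 24 hr; add Steady-Glo; hold 30 min RT; read luminescence.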
# Potency means the concentration at half of the fitted maximal effect; tags describe the fitted curve by direction and shape.
Structure (SMILES),Potency,activation
COc1ccc(OC)c(NC(=O)CSc2ccc(-c3cccs3)nn2)c1,"inconclusive: 11.2 µM [activator, partial curve, poor fit]",
CCOc1ccc(-n2c(N)c(C(=O)NCc3ccco3)c3nc4ccccc4nc32)cc1,active: 11.2 µM,
COc1ccc(Nc2nc3ccccc3nc2NS(=O)(=O)c2cccs2)cc1,,inactive: 0.361%
CC(/C=N/NC(=O)c1cc(-c2ccncc2)nc2ccccc12)=C\c1ccco1,"inconclusive: 14.1 µM [activator, single point]",
O=C(c1ccc(Cl)c(S(=O)(=O)N2CCCCC2)c1)N1CCN(c2ccccc2)CC1,,inactive: -0.631%
CCc1cccc2sc(N3CCN(C(=O)c4ccc([N+](=O)[O-])o4)CC3)nc12,"inconclusive: 3.55 µM [activator, partial curve, poor fit]",
Cc1ccc(SCCNC(=O)c2ccc(C)c(S(=O)(=O)Nc3cccc(C)c3)c2)cc1,,inactive: 2.68%
NC(=O)c1nn2c(C(F)(F)F)cc(-c3ccccc3)nc2c1Br,"inconclusive: 11.2 µM [activator, partial curve, poor fit]",
Cc1[nH]c2ccccc2c1C(=O)/C=C\c1ccccc1Cl,"inconclusive: 3.55 µM [activator, partial curve, poor fit]",
O=C(/C(=C/c1ccc(Cl)cc1)c1nc2ccccc2[nH]1)c1ccccc1,"inconclusive: 5.62 µM [activator, single point]",
O=C(C=C=Nc1ccccc1)C(=O)N=C=Cc1ccccc1,"inconclusive: 3.55 µM [activator, single point]",
CS(=O)(=O)c1ccc(S(=O)CC(=O)OCc2ccccc2)c([N+](=O)[O-])c1 (configuration not stated),"inconclusive: 5.01 µM [activator, single point]",
COc1ccc2nc(NC(=O)c3ccccc3F)sc2c1,"inconclusive: 3.16 µM [activator, full curve, poor fit]",
C=CCn1c(C)cc(C(=O)Cn2ncc(Cl)c(Cl)c2=O)c1C,"inconclusive: 3.55 µM [activator, partial curve, poor fit]",
CCOc1ccccc1C(=O)N(Cc1ccco1)Cc1ccco1,,inactive: 6.87%
COC(=O)c1c(NC(=O)c2ccco2)sc(C)c1C,"inconclusive: 2.51 µM [activator, full curve, poor fit]",
O=C(N/N=C/c1c(Cl)cccc1Cl)c1ccc(F)cc1,"inconclusive: 8.91 µM [activator, partial curve]",
COc1ccc(-c2nc3ccc(C)cn3c2Cc2ccc(C)cc2)cc1OC,,inactive: 6.84%
O=C(c1[nH]ncc1-c1ccccc1)C1CO1 (configuration not stated),"inconclusive: 25.1 µM [activator, single point]",
C/C(=N\Nc1nccnc1Cl)c1ccc(Cl)c(Cl)c1,active: 14.1 µM,
Cc1cc(C(=O)NCc2cccs2)c(C)o1,,inactive: 0.726%
Cc1ccccc1Nc1c(-c2cc(Br)ccc2F)nc2ccccn12,,inactive: -0.764%
CCc1noc(C)c1C(=O)N1CCN(c2ccc([N+](=O)[O-])cc2)CC1,,inactive: 0.247%
COc1ccc(NC(=O)C2CC(=O)N/C(=N/N=C/c3ccco3)S2)cc1 (configuration not stated),active: 2.51 µM,

Structure (SMILES),Potency,activation
c1ccc(-c2nnc(CN3CCCc4ccccc43)o2)cc1,"inconclusive: 17.8 µM [activator, single point]",
COc1ccc(Cc2c(-c3ccco3)nc3ccc(Br)cn23)c(C)c1,active: 8.91 µM,
O=C(NNCc1ccccc1)c1ccccn1,,inactive: -0.451%
O=C1/C(=C/C=C/c2ccccc2)Oc2c1ccc(O)c2CN1CCN(CCO)CC1,"inconclusive: 31.6 µM [activator, single point]",
Cc1ccc(N2CC(O)CSC2=Nc2ccccc2)cc1 (configuration not stated),"inconclusive: 22.4 µM [activator, single point]",
N#CCCN1CCN(Cn2c3ccccc3c3ccccc32)CC1,,inactive: 0.318%
CSCCC(NS(=O)(=O)c1ccccc1F)C(=O)NCc1ccncc1 (configuration not stated),,inactive: -0.0848%
Cc1csc(NC(=O)NC2(C(F)(F)F)Oc3ccccc3O2)n1,"inconclusive: 15.8 µM [activator, single point]",
CC1CCN(C(=O)c2ccc([N+](=O)[O-])o2)CC1,"inconclusive: 22.4 µM [activator, single point]",
COc1ccc(OC)c(C(=O)COC(=O)c2ccc(C)o2)c1,active: 12.6 µM,
O=C(NC1CCCc2ccccc21)c1cc(Cl)ccn1 (configuration not stated),"inconclusive: 12.6 µM [activator, partial curve, poor fit]",
O=C(Nc1ncccn1)c1cccc(F)c1,"inconclusive: 35.5 µM [activator, single point]",
CC12CCC(=O)N1C(C(=O)Nc1nc3ccc(Cl)cc3s1)CS2 (configuration not stated),"inconclusive: 15.8 µM [activator, single point]",
O=C(CCN1C(=O)c2cccc3cccc(c23)C1=O)Nc1ccccc1,"inconclusive: 1.41 µM [activator, full curve, poor fit]",
Cc1occc1C(=O)N/N=C/C(Br)=C/c1ccccc1,active: 15.8 µM,
COc1ncccc1-c1nnn(-c2ccccc2Br)n1,"inconclusive: 12.6 µM [activator, partial curve, poor fit]",
Oc1[nH]c2ccccc2c1N=NC(=S)N1CCOCC1,"inconclusive: 3.55 µM [activator, full curve, poor fit]",
COC(=O)c1sccc1NC(=O)c1ccc(Br)o1,active: 5.62 µM,
Cc1cc(O)c(N=Cc2cc3c(cc2[N+](=O)[O-])OCO3)cc1C,"inconclusive: 14.1 µM [activator, single point]",
Cc1cc(C(=O)Nc2ccc(Br)cc2)cs1,active: 11.2 µM,
O=c1oc2ccccc2nc1/C=C(\O)c1ccc(Br)cc1,"inconclusive: 7.08 µM [activator, partial curve, poor fit]",
CCCCN(CC(O)COc1cccc(C)c1)CC(O)COc1cccc(C)c1 (configuration not stated),,inactive: 0.555%
Cc1nc2ccccn2c1C(=O)N/N=C/c1ccc([N+](=O)[O-])o1,"inconclusive: 3.16 µM [activator, single point]",
Cn1c(=S)c2[nH]c(SCc3cccnc3)nc2n(C)c1=O,,inactive: 0.254%

Structure (SMILES),Potency,activation
Fc1ccc(-c2csc(Nc3ccccn3)n2)cc1,"inconclusive: 2.82 µM [activator, partial curve, poor fit]",
O=C(N/N=C/c1ccccc1F)c1ccccc1OCc1ccccc1,"inconclusive: 14.1 µM [activator, partial curve, poor fit]",
COc1ccc(C)cc1NC(=O)c1cc(S(=O)(=O)N2CCCCC2)c[nH]1,,inactive: -0.612%
O=C(NC(=S)Nc1ncc(Br)cc1Br)c1ccccc1,"inconclusive: 12.6 µM [activator, partial curve, poor fit]",
Cc1cc(C)cc(NC(=O)CCCc2nc(-c3ccco3)no2)c1,"inconclusive: 12.6 µM [activator, single point]",
CCC(C)Cn1c(C)nc2ccccc21 (configuration not stated),,inactive: 0.0202%
O=C(CNC1CCCCC1)Nc1cccc([N+](=O)[O-])c1,,inactive: 4.71%
O=C(CSc1nc2ccccc2[nH]1)N/N=C/C=C/c1ccccc1[N+](=O)[O-],"inconclusive: 11.2 µM [activator, partial curve]",
CSc1ccc(CN(C)C(=O)CNC(=O)c2sc3ccccc3c2Cl)cc1,,inactive: 0.494%
COc1cc(/C=C2\SC(=O)NC2=O)ccc1Oc1ccc([N+](=O)[O-])cc1[N+](=O)[O-],"inconclusive: 22.4 µM [activator, single point]",
Cc1nnc(NC(=O)CSc2nnc(CCNC(=O)c3ccccc3F)n2C)s1,,inactive: 0.583%
CC(=O)c1ccc(N2C(=O)C3C(C2=O)C(C(=O)c2ccc(Cl)cc2)N2CCCC32)cc1 (configuration not stated),"inconclusive: 14.1 µM [activator, single point]",
CCOc1ccc(N(Cc2ccccc2)C(=O)c2nc(S(C)(=O)=O)ncc2Cl)cc1,"inconclusive: 3.55 µM [activator, single point]",
Cc1[nH]c2ccccc2c1C(=O)/C=C/c1ccccc1,"inconclusive: 35.5 µM [activator, single point]",
CCOC(=O)C1CCN(C(=O)COC(=O)/C=C/c2ccc([N+](=O)[O-])cc2)CC1,"inconclusive: 17.8 µM [activator, partial curve, poor fit]",
Clc1ccccc1Cn1c(/C=C/c2ccco2)nc2ccccc21,"inconclusive: 3.16 µM [activator, partial curve, poor fit]",
O=C(O)CCCNc1cc(N2CCN(C(=O)c3ccco3)CC2)c2noc3c2c1C(=O)c1ccccc1-3,"inconclusive: 12.6 µM [activator, single point]",
Oc1ccc2ccccc2c1N=Nc1ccccc1F,active: 3.55 µM,
Cc1ccc(CNC(=O)c2ccc([N+](=O)[O-])o2)cc1,"inconclusive: 12.6 µM [activator, partial curve]",
O=C(NC(=S)N(CCc1ccccc1)CCc1ccccc1)c1ccco1,"inconclusive: 31.6 µM [activator, single point]",
CCCS(=O)(=O)c1nc(S(=O)(=O)c2ccc(C)cc2)c(N2CCN(CC)CC2)s1,"inconclusive: 11.2 µM [activator, single point]",
CCc1ccccc1NC(=O)CN(C)C(=O)Cn1ncc(Cl)c(Cl)c1=O,"inconclusive: 3.16 µM [activator, partial curve, poor fit]",
Cc1ccc(Oc2ncnc3sccc23)cc1,"inconclusive: 22.4 µM [activator, single point]",
COc1ccc2c(c1OC)C(=O)N1c3ccccc3COC21 (configuration not stated),,inactive: -0.0736%
